In the RNAGym collection of RNA variant scans (doi:10.7554/elife.90254):
The source gives no read counts; variants with many changes may rest on few reads.

B1: LINE1-full (parent)
chain: UACGUAGGUGGUUUUCCCCUGAUAGUGCUAAGGGGGCCUGGAAGUUUGGACUGGGCAGAGCUCAACACAGCGUGGCAAAGUGGCUGUGGCUAGACUGCCUCUCUGGAUUCCUCGUCACUCAGCAGGGCAUCUCUGAGAGAAAUGCC

Variants of: B1
Assay: self-cleavage, relative activity (ratio to wild type); higher = more cleavage; in vitro, sequencing; the parent is a self-cleaving ribozyme

Row | Variant | self-cleavage
1 | U9C U15A U96C U119A A141G | 0.4
2 | A65U U73C U102A G125A | 0.29
3 | A22C A31U U47A C56G A57C | 0
4 | U14A U62A A69G | 0.11
5 | U14C A30G U52A G114A | 1.99
6 | G10U U104A U112C | 0.24
7 | A2G G35C A129G A136G | 1.39
8 | U13C C28A A42U A79G U81A | 0.84
9 | G33A U87C A94U | 0.12
10 | U1C U46C C51U G89A A107U | 0.03
11 | A94C U132A U143C | 0
12 | U39A U52G U91A | 1.02
13 | U20C U23C A30U G33U C131U | 2.07
14 | G4U A79G U102C A107G | 0
15 | U1C U39A A67G U73C | 1.02
16 | A2G A42G U85A A107U | 0.21
17 | A2G A138G A141G | 1.62
18 | G60A U62C U108C | 0.04
19 | A77G A138G A141G | 2.79
20 | A42G A77U U104C | 1.68
21 | U45C U112C U119C | 0

Row | Variant | self-cleavage
22 | A30U U87A U130C | 0.1
23 | U29C U102A A124G U134C | 0
24 | U20C A42U U45C A67G G72A U134C A142G | 0.84
25 | G27A A57G U119C A129U U130C A142G | 0
26 | U115C A138U U143C | 1.06
27 | U15C C101U U108C | 1.84
28 | G35U U100C U102A | 1.87
29 | G8U A31C U96C | 0.11
30 | U5C A129U A141G | 1.11
31 | U12G G40A A92G A107G U130C A138U | 0.24
32 | U5A A22G U45C A79G G80A | 0.89
33 | A64G U91C U112C | 0
34 | U15C U20C U85C G125U | 0.46
35 | U23A A59G U109C A138G | 0.11
36 | U13C A31U U73C | 0.27
37 | G33A A57G U85C A107G | 0.27
38 | U73A G86A U87A | 0.08
39 | A22U U96A A129U | 0
40 | U13A U85C A140G | 0.2
41 | A22G G32A G97A | 0
42 | U13C U52C A136U | 1.67

Row | Variant | self-cleavage
43 | U52C U134A A142G | 0.52
44 | U9A U12C C38A U47G A50G A78G A121C | 1.72
45 | A43U U73A G137U | 1.01
46 | U20A U29C U87C | 0.57
47 | U5C A22C U52A C56A U62C G74U | 0.11
48 | G4A U9C U12C A31U C71A A79G U115A A129U | 0.37
49 | A78U U81A U112C | 2.19
50 | G21U U47A A140G | 0.27
51 | U12C U15C A57G | 1.3
52 | U13C A59G C118U | 0.19
53 | A67G G80U U91C | 0
54 | U45A U81A U85A | 0.06
55 | G53U A78G A124G | 0.6
56 | G7A U47A G82U U132C | 1.04
57 | U13C G74A A142G | 1.12
58 | U20A G54A U91C A141U | 0
59 | U9C G40A A94G | 0.4
60 | U26C A77G G97A U109C | 0.09
61 | U20C A124G A142G | 1
62 | U85A C95U U134A | 0.11
63 | U12G U81A C98A | 0.42

Row | Variant | self-cleavage
64 | A64G U100A A129G | 0
65 | G7A G82A U87C | 0.36
66 | U20A A43U A77G | 0.95
67 | A24G U52A U100C | 2.69
68 | U52A U87A A142G G144U | 0.2
69 | U1C U45C U104A | 1
70 | U52C U87C U100A | 0
71 | A31G G32C G60A A69U A138U A140G | 0
72 | U15A A31G U87A | 0.23
73 | A67G A69G U81A U104A | 0.04
74 | U12C U39C A136U A142G | 0.4
75 | U15A A31G A92U U143C | 0
76 | C19A A50C U73A U96G | 0.19
77 | U46G G82A U100C | 2.51
78 | U39C A65U U102A | 0.09
79 | A22G G33A U112A | 1.31
80 | U15C A107G A129U | 1.15
81 | G53U U62C C131U | 0.05
82 | A69G U102A U143C | 0.26
83 | C3U A22G A30U U85G | 0.07
84 | A65G A140G C146A | 0
